No constants are given. Whether binding was seen depends on the method and setting. Some binding calls cover weakened binding; strength is not graded here.
What was measured:
DnaJB4 (human) [1] = biological target: DnaJB4 (human) (UniProt Q9UDY4); assay: fluorescence polarisation; competition; 100 μM unlabeled peptide, 5 μM DnaJB4, 20 nM Hsp72 tracer in JDP binding buffer; 30 min at room temperature; tracer displacement relative to DMSO control; both purified
DnaJB4 (human) [2] = biological target: DnaJB4 (human) (UniProt Q9UDY4); assay: differential scanning fluorimetry; 5 μM DnaJB4, 100 μM peptide, 5x Sypro Orange in JDP binding buffer; apparent melting temperature of DnaJB4; both purified

Chains of the proteins cited; added tags and fusions are not shown.
UniProt Q9UDY4: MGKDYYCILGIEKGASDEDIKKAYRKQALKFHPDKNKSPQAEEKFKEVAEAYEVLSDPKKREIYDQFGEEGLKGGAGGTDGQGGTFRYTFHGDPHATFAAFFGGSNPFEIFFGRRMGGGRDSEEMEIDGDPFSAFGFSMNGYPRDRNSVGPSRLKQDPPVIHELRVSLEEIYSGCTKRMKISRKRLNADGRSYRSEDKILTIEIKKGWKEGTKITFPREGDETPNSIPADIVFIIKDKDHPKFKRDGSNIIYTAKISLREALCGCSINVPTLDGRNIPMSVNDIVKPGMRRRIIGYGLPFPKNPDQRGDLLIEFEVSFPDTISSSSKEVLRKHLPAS

Substance | binding (DnaJB4 (human) [1]) | binding (DnaJB4 (human) [2])
Hsp72 peptide with tyrosine at P5 (from UniProt P0DMV8 632-641) | binds | 
Hsp72 peptide with leucine at P5 (from UniProt P0DMV8 632-641) | binds | 
Hsp90α C-terminal 10-mer peptide, unlabeled, N-acetylated (from UniProt P07900 723-732) | no binding (tested: 100 μM peptide) | no binding (tested: 100 μM peptide)

Next, values leading:

binding (DnaJB4 (human) [1]) | binding (DnaJB4 (human) [2]) | Substance
no binding (tested: 100 μM peptide) | no binding (tested: 100 μM peptide) | Hsp90β C-terminal 10-mer peptide, unlabeled, N-acetylated (from UniProt P08238 715-724)
binds |  | Hsp72 peptide with phenylalanine at P5 (from UniProt P0DMV8 632-641)
binds |  | Hsp72 peptide with valine at P5 (from UniProt P0DMV8 632-641)
